# Test results: PubChem BioAssay AID1345082 (National Center for Advancing Translational Sciences (NCATS), 2018)
# The whole screen tested about 94,000 compounds, of which about 4,000 (4.3%) were called active. This list was built around the results that the source calls inconclusive (neither active nor inactive); the mix of calls is not that of the screen. The call rests on the fitted dose curve; in most records, active means well fitted inhibition curve with a large enough effect; inconclusive means small, poorly fitted or top-dose-only effect; inactive means no such curve, though single readings can be large or run the other way. A potency beside an inconclusive call is a rough fit, not a confirmed value.
# Experiment: Cytotoxic Profiling in NIH 3T3 Cell Line of Diverse Libraries Using Quantitative High-Throughput Screening; further: nearly all actives have a fitted effect of over 55% in size
# Conditions: NIH 3T3 viability, CellTiter-Glo ATP luminescence, 48-72 h; series mostly up to 96.7 µM; activity change, negative = cytotoxicity: at the top concentration
# Method in brief: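 Cells were seeded at 400 per well, treated with pin-transferred compound, and kept 48 or 72 hr at 37 °C before CellTiter-Glo addition and luminescence imaging of cellular ATP.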
# On the % scale 0 is the no-effect control and ±100 the full control effect; potency means the concentration at half of the fitted maximal effect; tags describe the fitted curve by direction and shape.
Structure (SMILES),Potency,"activity change, negative = cytotoxicity"
COc1cc2c(cc1OCC1CCCC1)N(C(=O)C1CCC(C)CC1)CC21CCN(CC(=O)O)CC1 (stereo unspecified),"inconclusive: 44.7 µM [inhibitor, partial curve, poor fit]",–
CN1C(=O)[C@@H]2C[C@@H](O)CN2C2(CN(Cc3cccnc3)C2)C1=O,–,inactive: -45.9% [at 174 µM]
COc1cccc(CC(=O)N2CC3(CCN(C(C)=O)CC3)c3cc(OC)c(CCc4ccccc4)cc32)c1,"inconclusive: 31.6 µM [inhibitor, partial curve, poor fit]",–
COc1ccc2c(c1)C1(CCN(S(=O)(=O)c3cccc(F)c3)C1)C(=O)N2 (stereo unspecified),"inconclusive: 35.5 µM [inhibitor, partial curve, poor fit]",–
COc1cc2c(cc1OCc1ccncc1)NC(=O)C21CCN(Cc2ccncc2)CC1,"inconclusive: 100 µM [inhibitor, partial curve, poor fit]",–
COc1cc2c(cc1OC1CCCC1)NC(=O)C21CCN(c2nc(C)cc(C)n2)CC1,"inconclusive: 89.1 µM [inhibitor, partial curve, poor fit]",–
COCCNC(=O)[C@H]1CN2CC[C@H]1C[C@@H]2Cn1cc(CN(C)C)nn1,–,inactive: -9.75% [at 174 µM]
Cn1nc(-c2ccc(F)cc2)cc1[C@H]1CN2CC[C@H]1C[C@@H]2CNC(=O)Nc1ccccc1,"inconclusive: 126 µM [inhibitor, single point]",–
CCC(CC)c1cc([C@H]2CN3CC[C@H]2C[C@@H]3CNC2CCN(C(C)=O)CC2)nc(-c2ccncc2)n1,"inconclusive: 44.7 µM [inhibitor, partial curve, poor fit]",–
COc1cc2c(cc1OCc1ccccc1)N(C(=O)c1cc3ccccc3n1C)CC21CCN(C)CC1,active: 12.6 µM,–
O=C(c1ccccc1)N1C[C@@H]2C[C@H](C1)c1ccc(-c3ccc(Cl)cc3)c(=O)n1C2,active: 63.1 µM,–
COc1cc2c(cc1Oc1ccccc1)NC(=O)C21CCN(C(=O)c2ccccc2)CC1,"inconclusive: 63.1 µM [inhibitor, partial curve, poor fit]",–
C#C[C@H]1CN2CC[C@H]1C[C@@H]2CNC(=O)c1ccc(-c2ccccc2)cc1,active: 112 µM,–
COc1ccc(C(=O)N2CC3(CCN(C)CC3)c3cc(OC)c(OCc4ccccc4)cc32)cn1,"inconclusive: 70.8 µM [inhibitor, partial curve, poor fit]",–
COc1cc2c(cc1CCc1ccccc1)N(C(=O)COc1ccccc1)CC21CCN(C(C)=O)CC1,"inconclusive: 28.2 µM [inhibitor, full curve, poor fit]",–
O=C(Nc1ccccc1)[C@H]1CN2CC[C@H]1C[C@@H]2Cn1cc(CC2CCCCC2)nn1,"inconclusive: 126 µM [inhibitor, single point]",–
